{"source": "PubChem BioAssay (Tox21)", "note": "The shares of active, inactive and inconclusive entries below differ from those in the screen. Potencies of inconclusive entries are left out as doubtful fits. Activity calls are given as the source filed them. Calls follow the shape of the dose curve; as a rule, active = well fitted activation curve with a large enough effect in the repeat runs; inconclusive = weak or mixed curves; inactive = no such curve, though single readings can be large or run the other way. *1 amine or outer side, *2 acyl side, *3 side chain or, on linkers, in order; H or OH if unused. Where a SMILES comes first, the peptide text is derived from it. Bridges are numbered along the chain shown (N, C = ends). Roman numbers before positions name the chains, in order. [ ]: non-standard residue; d: D form. Actinocin(9to1) = Cc1c2oc3c(C)ccc(C(=O)[*:1])c3nc-2c(C(=O)[*:2])c(N)c1=O; NMeV = CN[C@H](C(=O)O)C(C)C; Sar = CNCC(=O)O", "data": [{"test": "qHTS assay for small molecules that induce genotoxicity in human embryonic kidney cells expressing luciferase-tagged ATAD5 (AID 651632); also: nearly all actives have a fitted effect of over 15% in size; also: potency is read from the fitted curve at half-maximal effect; tags tell the direction and shape of the fitted curve; as to activation: % is scaled to controls: 0 for no effect and ±100 for the full control effect", "conditions": "HEK293T ATAD5-luciferase induction, 16 h; series mostly up to 83.3 µM; activation: at the top concentration", "how_it_was_run": "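ATAD5-luc HEK293T, 2,000 cells/well; cpd or DMSO pin-transferred; 16 hr, 37C/5% CO2; Amplite 30 min RT; luminescence.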", "values": [{"smiles": "CCCOc1ccc2nc(NC(=O)OC)[nH]c2c1", "Potency": "active: 1.68 µM"}, {"smiles": "Cc1c2oc3c(C)ccc(C(=O)N[C@@H]4C(=O)N[C@H](C(C)C)C(=O)N5CCC[C@H]5C(=O)N(C)CC(=O)N(C)[C@@H](C(C)C)C(=O)O[C@@H]4C)c3nc-2c(C(=O)N[C@@H]2C(=O)N[C@H](C(C)C)C(=O)N3CCC[C@H]3C(=O)N(C)CC(=O)N(C)[C@@H](C(C)C)C(=O)O[C@@H]2C)c(N)c1=O", "note": "(I: T[dV]P[Sar][NMeV] / II: T[dV]P[Sar][NMeV]; ester I:1-I:C, II:1-II:C; linker I:N-II:N via Actinocin(9to1))", "Potency": "inconclusive [activator, full curve, poor fit]"}, {"smiles": "O=C(/C=C/c1ccccc1)OCCc1ccccc1", "Potency": "inconclusive [activator, partial curve]"}, {"smiles": "Cc1cc(O)ccc1O", "Potency": "inconclusive [activator, partial curve, poor fit]"}, {"smiles": "C=CCN1C[C@H](C(=O)N(CCCN(C)C)C(=O)NCC)C[C@@H]2c3cccc4[nH]cc(c34)C[C@H]21", "activation": "inactive: 3.51%"}, {"smiles": "CCCCC1=NC2(CCCC2)C(=O)N1Cc1ccc(-c2ccccc2-c2nn[nH]n2)cc1", "activation": "inactive: 1.83%"}, {"smiles": "CC1(C)O[C@@H]2C[C@H]3[C@@H]4CCC5=CC(=O)C=C[C@]5(C)[C@@]4(F)[C@@H](O)C[C@]3(C)[C@]2(C(=O)CO)O1", "Potency": "inconclusive [activator, full curve, poor fit]"}, {"smiles": "O=CC(=O)c1ccccc1", "Potency": "inconclusive [activator, partial curve, poor fit]"}]}]}
